Experimental data taken from PubChem BioAssay AID294 (DTP/NCI, 2004).
Certain results were filed several times, with different values. They are shown here; other results are not. An entry can have further records. The records of an entry differ, and nothing given here explains why; dose, time, organism, isomer or construct need not be as stated for each record.

Test system: MX-1 breast xenograft, nude mice, tumor weight change
Experiment: NCI In Vivo Anticancer Drug Screen. Data for tumor model Human Mammary Carcinoma MX-1 Xenograft (subcutaneous) in NU/NU Swiss (nude) mice
Details: endpoint: optimum tumor weight change, schedule: Q04DX003 (ip), higher = larger tumour
Experimental: The antitumor activity of compounds was measured in mice bearing transplantable tumors. Survival or tumor size were measured and the results are expressed as the measurement made in the treated group (T) divided by the measurement made in the vehicle treated control group (C). The tumor model used in this assay is Human Mammary Carcinoma MX-1 Xenograft (subcutaneous) in NU/NU Swiss (nude) mice

[1] = dose: 1.5 mg/kg/injection, vehicle: saline
[2] = dose: 15.0 mg/kg/injection, vehicle: saline

## COC1C(O)CC(OC2CC(OC3CC(O[C@@H]4C(=O)c5c(cc6cc(OC7CC(OC8CC(O)C(O)C(C)O8)C(O)C(C)O7)c(C)c(O)c6c5O)C[C@H]4[C@H](OC)C(=O)[C@@H](O)[C@@H](C)O)OC(C)C3O)OC(C)C2O)OC1C (stereo partly specified)
[1]
  T/C: 11 % of control and 87 % of control

## COc1cccc2c1C(=O)c1c(O)c3c(c(O)c1C2=O)C[C@@](O)(C(=O)CO)C[C@@H]3OC1CC(N)C(O)C(C)O1 (stereo partly specified)
dose: 2.0 mg/kg/injection, vehicle: water
  T/C: 69 % of control, 72 % of control, 104 % of control
dose: 4.0 mg/kg/injection, vehicle: water
  T/C: 39 % of control, 42 % of control, 68 % of control

## CCOC(=O)C1C2OC(=O)C(C(=O)C2CN(CCCl)CCCl)C1C1CC=C(CC2=CCC(C3C4C(=O)OC(C(CN(CCCl)CCCl)C4=O)C3C(=O)OCC)CC2)CC1 (stereo unspecified)
dose: 50.0 mg/kg/injection, vehicle: Klucel (hydroxypropylcellulose) (HPC)
  T/C: 43 % of control, 75 % of control, 165 % of control

## C[n+]1c(-c2cccc3ccccc23)c2cc(N)ccc2c2ccccc21
[1]
  T/C: 76 % of control and 118 % of control

## CCCCNCCCNCCCNC(=O)c1csc(-c2csc(CCNC(=O)C(NC(=O)C(C)C(O)C(C)NC(=O)C(NC(=O)c3nc(C(CC(N)=O)NCC(N)C(N)=O)nc(N)c3C)C(OC3OC(CO)C(O)C(O)C3OC3OC(CO)C(O)C(OC(N)=O)C3O)c3cnc[nH]3)C(C)O)n2)n1 (stereo unspecified)
[2]
  T/C: 14 % of control and 43 % of control

## N[C@@H](Cc1ccc(N(CCCl)CCCl)cc1)C(=O)O
dose: 2.0 mg/kg/injection, vehicle: suspension in saline
  T/C: 37 % of control and 97 % of control
dose: 8.0 mg/kg/injection, vehicle: suspension in saline
  T/C: -76 % of control and 4 % of control

## Cc1c(N)nc(C(CC(N)=O)NCC(N)C(N)=O)nc1C(=O)NC(C(=O)NC(C)C(O)C(C)C(=O)NC(C(=O)NCCc1nc(-c2nc(C(=O)NCCCNC(C)c3ccccc3)cs2)cs1)C(C)O)C(OC1OC(CO)C(O)C(O)C1OC1OC(CO)C(O)C(OC(N)=O)C1O)c1cnc[nH]1 (stereo unspecified)
[2]
  T/C: 32 % of control, 34 % of control, 62 % of control

## Cc1c(N)nc([C@H](CC(N)=O)NC[C@H](N)C(N)=O)nc1C(=O)N[C@H](C(=O)N[C@H](C)[C@@H](O)CC(=O)N[C@H](C(=O)NC(O[C@@H]1O[C@@H](C)[C@@H](N)[C@@H](O)[C@H]1O)C(O)c1nc(-c2nc(C(=O)NCCCCN)cs2)cs1)[C@@H](C)O)[C@@H](O[C@@H]1O[C@@H](CO)[C@@H](O)[C@H](O)[C@@H]1O[C@H]1O[C@H](CO)[C@@H](O)[C@H](OC(N)=O)[C@@H]1O)c1c[nH]cn1 (stereo partly specified)
dose: 16.0 mg/kg/injection, vehicle: saline
  T/C: 26 % of control, 38 % of control, 53 % of control

## CSc1cc(=O)n2c3ccccc3c3ccnc1c32
dose: 40.0 mg/kg/injection, vehicle: saline with Tween-80
  T/C: 56 % of control, 85 % of control, 96 % of control
